{"source": "paper PMC12136788", "binders": {"B1": {"name": "chr17:65930154:65930155:-_ENSMUSG00000024091_ENSMUST00000024897|mus_hu|motif|central (ssRNA)", "RNA": "GGGAGUUCUACAGUCCGACGAUCGGUGACAUUAUCUCUGAAGGAUGCAGUUGAGGUUGAUCCAGGUUUAUCCGAAUGUGCGGCCUUUCUGAGCCUUAAACCUUCAUCUCUCAGGUGCCGAUUUUCUUCUGAUAGCUUCAUCAUCAACAGAGGAUUGAGCAUCA"}, "B2": {"name": "chr19:47610742:47610743:-_ENSMUSG00000042694_ENSMUST00000049369|mus_hu|motif|central (ssRNA)", "RNA": "GGGAGUUCUACAGUCCGACGAUCUGGCACCUGGCGGGACUCCUUCAUGUCCAGGAUAUCCCUGAUGUAGAGUUUUGCAAAGGCGGGAAACACAGGAUCCAAACCCCACAAGAGGGAAGGGGUCUCCUCUUCACACCGGCUGGACAACAGAGGAUUGAGCAUCA"}, "B3": {"name": "chr6:40426449:40426450:+_ENSMUSG00000029911_ENSMUST00000121360|perfect_dup|FALSE|FALSE (ssRNA)", "RNA": "GGGAGUUCUACAGUCCGACGAUCGACAUCACCCAGUUGGUAAACUUCACUAUCCCCUGAUCGCCACAUCUCAUUAGUUGCUAGAGAAAAUAUUGUGACUGGAUUUUUUCCUUCCACCUGUCUCAAGACAGGGUCCUGACCCACCAACAGAGGAUUGAGCAUCA"}, "B4": {"name": "44635006_44636950_5628_CDS_ENSMUSG00000002028_ENSMUST00000002095|mouse|control|control (ssRNA)", "RNA": "GGGAGUUCUACAGUCCGACGAUCCUCAUUUUGGCCAAUGUACAGCAAACGGCCAGCAUCAUUAGCACUGUCAUCGCCGUACAUCAGACACAGUGCACACUGUCGGUUGUCAUCGAUGCCUGGGGGUGGAUUCAGCUCUGGACUCAACAGAGGAUUGAGCAUCA"}, "B5": {"name": "chr22:19452774:19452775:-_ENSG00000070010_ENST00000399523|hu_hu|hu_hu_hu_mus_False|68_98 (ssRNA)", "RNA": "GGGAGUUCUACAGUCCGACGAUCCUUCUCAUUGUAGUUGAUGGCAAUCACAUCUCCAGUCGUCAGACAGGCAAAGUUUCUCAAUGCAUUUUCUAAUACCGCUUUAGGGUUGGUAAUAUCCAGGAAGUCUGGGCUCUGAGGCUGCAACAGAGGAUUGAGCAUCA"}, "B6": {"name": "chr18:9122563:9122564:+_ENSG00000178127_ENST00000318388|hu_mus|motif|central (ssRNA)", "RNA": "GGGAGUUCUACAGUCCGACGAUCGACCUGGAUAUGGUACUUCCCAACUGGCUUUCGAUUAUACAUUGUAUAAAAAGUUGCGGCUUCAUAUACUCUCAUUGGAGGUACUUGUAAAACUUCAGCCACCUUGUUCAUAGCGGAGAUCAACAGAGGAUUGAGCAUCA"}, "B7": {"name": "chr7:99593754:99593755:+_ENSMUSG00000052572_ENSMUST00000098308|mus_mus|motif|central (ssRNA)", "RNA": "GGGAGUUCUACAGUCCGACGAUCCUUUAGUGCCUUCUUUCAGCUUAUAAAUGGCAAAAUAGACAAUUGACAGCCAUAAAGCGGGGCCAGGUGGAAUCUCCUCCUCUCUAAGGUUAGUCCUCCACACAGGACACACUUGUCUUUCAACAGAGGAUUGAGCAUCA"}, "B8": {"name": "chr4:144460044:144460045:+_ENSG00000153147_ENST00000283131|hu_mus|hu_hu_hu_mus_False|68_78 (ssRNA)", "RNA": "GGGAGUUCUACAGUCCGACGAUCACGGUCCAUAGCCUGAAGAUCAACUUGCGGAUUCCAAUCAGAAUCAUACAAAAUGACUACAUCAGCAGUUGCAAGAUUGAUGCCCAGACCACCAGCACGUGUGCUUAGCAUAAAUACAAACAACAGAGGAUUGAGCAUCA"}, "B9": {"name": "chr5:176562935:176562936:+_ENSG00000165671_ENST00000439151|hu_mus|motif|central (ssRNA)", "RNA": "GGGAGUUCUACAGUCCGACGAUCGGGACUGGAGUCUGGAUCAUCCUGAAAAGAUAAAUUUAUUGAGUUAAAUUGCUCUUCGGCGGUAACGUUCGUGUCUCCUAGUGAGGUGGGGGCUGGGAGGAGGGCUGUCUUUUCAUUGCUCAACAGAGGAUUGAGCAUCA"}, "B10": {"name": "chrX:98862621:98862622:+_ENSMUSG00000034160_ENSMUST00000044475|mus_hu|mus_mus_mus_hu_False|8_38 (ssRNA)", "RNA": "GGGAGUUCUACAGUCCGACGAUCCUGCAUCUCCUUUAGAGUGUUUCCCAUAUUAGAGUAGGCAUCAGCAAAGGUAGGACUGAUUCGAAUAGCCUCCUUAUAGUGCAUCAGAGCUUCCUGCAGUUUUCCCUGCUGUUGCAGUACCAACAGAGGAUUGAGCAUCA"}, "B11": {"name": "chr20:57485041:57485042:+_ENSG00000087460_ENST00000306090|hu_hu|FALSE|FALSE (ssRNA)", "RNA": "GGGAGUUCUACAGUCCGACGAUCGUAGUCCUCAAUCUUCGAUUUCCCAGCAAGGACUUUCUCAGCGAGCAGAUCUUGCUUGUUGAGGAACAGGAUCACAGAGAUGGUGCGCAGCCAUCUGUUGUUCCAGAUGCUCUUGAAGAGCAACAGAGGAUUGAGCAUCA"}, "B12": {"name": "chr13:58910217:58910218:+_ENSMUSG00000055254_ENSMUST00000079828|mus_hu|FALSE|FALSE (ssRNA)", "RNA": "GGGAGUUCUACAGUCCGACGAUCACUGUUAGGCUCCAAUCUCGGAAAUGCCACGAUGCCAGGAGAAGGGUCGCUGCACCAGAUCCGAGAGGCACUGCAUUUGCAGGACGUGGGACAGGCGAAAGCGGCCCUCCAGAAGCCCACCAACAGAGGAUUGAGCAUCA"}, "B13": {"name": "chr6:83912004:83912005:+_ENSMUSG00000030016_ENSMUST00000032088|mus_hu|FALSE|FALSE (ssRNA)", "RNA": "GGGAGUUCUACAGUCCGACGAUCUAAGUCAUAAACUUCUUCUACAGAAUAUCCUUUAUUAGGCAAAUUAGAGACAAGCAUCACACACAUUUCUUCUGUUUCCUUGUUAAGUGGUUCAUUCUCUGUGGCCUCCAAAGCAGCAUCCAACAGAGGAUUGAGCAUCA"}, "B14": {"name": "chr8:110352747:110352748:+_ENSG00000120533_ENST00000521662|hu_mus|motif|central (ssRNA)", "RNA": "GGGAGUUCUACAGUCCGACGAUCCAGGGCUCUGCCUUUUGGAGUGAUUUCAGCCACCAAGUCAUCAACAGUAACGUGUUCGGGUCCUUUUUCUUUAAUUACCUCUUUACAGUGUGCCUUUAGCUGAUCCUUCCAGCCGCACUCCAACAGAGGAUUGAGCAUCA"}, "B15": {"name": "chr11:53094105:53094106:-_ENSMUSG00000020361_ENSMUST00000020630|mus_hu|FALSE|FALSE (ssRNA)", "RNA": "GGGAGUUCUACAGUCCGACGAUCCAAUUUCUUGAGUUUCUCACACUCCUGAGAGAGUCGUAAUAAUGCACGGAUUUUGGACUUAAUGUCUAGCUUGUAUUUCUUCCCAAAUUCUUCACAGAAGUGAUUUACUAACACUUCAUCCAACAGAGGAUUGAGCAUCA"}, "B16": {"name": "chr10:98281081:98281082:-_ENSG00000077147_ENST00000371142|hu_hu|motif|central (ssRNA)", "RNA": "GGGAGUUCUACAGUCCGACGAUCAAGAAAAAAGUACUCUGUAGUCGAUCUGUACAUCCAAAUGCAUUUGGGAAUCGGCACCGGCGUUACAUUAUUUAAUGUUAUAUACAUUUAUUACCCACCCCCCUUGUUUUUAAUAAUUUCCAACAGAGGAUUGAGCAUCA"}, "B17": {"name": "chr10:1042047:1042048:+_ENSG00000107937_ENST00000545048|hu_hu|motif|central (ssRNA)", "RNA": "GGGAGUUCUACAGUCCGACGAUCGUAGAGAGAGUCGCCAUACUUCAUCAGUCGCACAUAAUCUUUAGCAACAUUGUCCACGGAAUUUUUGGCAAUAUUUAUUUGCCCCAGAGCCAACUUGUAAUGAUCCUUGUCGUAGAGAAUCAACAGAGGAUUGAGCAUCA"}, "B18": {"name": "chr16:29649037:29649038:+_ENSMUSG00000038084_ENSMUST00000160597|mus_mus|FALSE|FALSE (ssRNA)", "RNA": "GGGAGUUCUACAGUCCGACGAUCCACAGUCUACUUCUCCUGGUGAAGAGCUUCAAUGAAAGCAUCAAGCUUUUCUUGAAUUUCUCUAACUUUCUUGAGAUCUUCUGCCAGCUGAACUCGUUUGCCAGUGAGCAAUUUAACCUUCAACAGAGGAUUGAGCAUCA"}, "B19": {"name": "chr18:34474267:34474268:+_ENSMUSG00000005871_ENSMUST00000115781|mus_hu|FALSE|FALSE (ssRNA)", "RNA": "GGGAGUUCUACAGUCCGACGAUCCUCUGAUUCUGUUUCAUUCCCAUUGUCAUUUUCCUGAACUGGAGGCAUUAUUCUUAAUUCCACAUCUUUCUGUAUAAAUGGCUCAUCGAGGCUCAGAGCACUCAGGCUGGAUGAACAAGACAACAGAGGAUUGAGCAUCA"}, "B20": {"name": "chr1:60041781:60041782:+_ENSMUSG00000041040_ENSMUST00000036540|mus_hu|mus_mus_mus_hu_False|48_98 (ssRNA)", "RNA": "GGGAGUUCUACAGUCCGACGAUCAAGUUUACAAUAGCUCAACUUUAGCAGUAGUGGCAAAUUUUCUUUUAUUUUCCUUCACAAAAGAAAACCUCAGUAACCCAGUCCUAGUCUUGGACAUAGUGAAAGCUAUAAAUUCUGACUCAACAGAGGAUUGAGCAUCA"}, "B21": {"name": "70064772_70066678_665_CDS_ENSG00000087338_ENST00000282570|human|control|control (ssRNA)", "RNA": "GGGAGUUCUACAGUCCGACGAUCAUCAAUGUUCUGGUCAGGAAUCUCCAGUUCAAUAAUAUUCAUGCUGGAUUCUUUCCAAGAACCACUGAACAUACUAGAAAAGUAGCCAGAUUGACAUAAAUAUAUUUUGUGUAAGCUCCACAACAGAGGAUUGAGCAUCA"}, "B22": {"name": "chrX:130621085:130621086:+_ENSMUSG00000031256_ENSMUST00000033609|mus_mus|FALSE|FALSE (ssRNA)", "RNA": "GGGAGUUCUACAGUCCGACGAUCGUAAUAUCUUAAGUAUAUUAACUGUAAUCAAAUUUGUACUAUAGUUAGAAGCCAACUAUAUUGUCACUUUGUAUUGUUUGGAAUAACUGGAAAGGCCUGACGUACAUCAUGAGAUAAUUGCAACAGAGGAUUGAGCAUCA"}}, "note": "Some of the results follow."}
{"molecular_target": "T1, UNK ZnF1-3 (human, UniProt Q9C0B0 31-174)", "T1 sequence": "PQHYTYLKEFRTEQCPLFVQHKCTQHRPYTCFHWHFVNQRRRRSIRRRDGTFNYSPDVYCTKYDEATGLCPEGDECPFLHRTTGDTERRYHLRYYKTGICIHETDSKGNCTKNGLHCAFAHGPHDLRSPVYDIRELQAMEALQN", "experiment": "nsRBNS (natural sequence RNA bind-n-seq); RBNS binding buffer (assumed for nsRBNS): 25 mM Tris pH 7.5, 150 mM KCl, 3 mM MgCl2, 0.01% Triton X-100, 500 ug/ml BSA, 20 U/ml SUPERase-In, 4 C; UNK is unkempt and MSI1 is Musashi-1; names of the RNAs are library labels; protein concentration not given here; high values mean tight binding", "units": {"binding signal": "enrichment R"}}
{"binder": "B1", "binding signal": 0.429}
{"binder": "B2", "binding signal": 0.811}
{"binder": "B3", "binding signal": 1.13}
{"binder": "B4", "binding signal": 0.448}
{"binder": "B5", "binding signal": 1.03}
{"binder": "B6", "binding signal": 0.954}
{"binder": "B7", "binding signal": 1.16}
{"binder": "B8", "binding signal": 1.35}
{"binder": "B9", "binding signal": 0.991}
{"binder": "B10", "binding signal": 1.25}
{"binder": "B11", "binding signal": 0.382}
{"binder": "B12", "binding signal": 0.732}
{"binder": "B13", "binding signal": 1.7}
{"binder": "B14", "binding signal": 0.781}
{"binder": "B15", "binding signal": 0.496}
{"binder": "B16", "binding signal": 1.85}
{"binder": "B17", "binding signal": 1.17}
{"binder": "B18", "binding signal": 0.703}
{"binder": "B19", "binding signal": 0.842}
{"binder": "B20", "binding signal": 0.602}
{"binder": "B21", "binding signal": 1.31}
{"binder": "B22", "binding signal": 1.06}
